Variants at the floor of the assay are shown more often than the library holds them.
B1: TPR 5TU (parent)
chain: GGAUCUUCUCGAUCUAACAAAAAAGACAAAUCUGCCACAAAGCUUGAGAGCAUCUUCGGAUGCAGAGGCGGCAGCCUUCGGUGGCGCGAUAGCGCCAACGUUCUCAACUAUGACACGCAAAACGCGUGCUCCGUUGAAUGGAGUUUAUCAUG

Variants of: B1
Experiment: polymerase ribozyme fitness, log enrichment relative to wild type (log ratio); higher = more active; in vitro selection for triplet polymerase activity
Method in brief: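 A single round of triplicate in vitro selection, including frozen incubation at −7 °C, was applied to PCR-built, transcribed mutant libraries of each subunit of a heterodimeric triplet polymerase ribozyme. Illumina sequencing of input and output libraries retained genotypes with ≥10 input reads and ≥1 read per output. Fitness is the base-2 logarithm of genotype enrichment divided by wild-type enrichment, from inverse-variance-weighted replicate averages.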

Row | Variant | polymerase ribozyme fitness (log ratio)
1 | G50A G83A A91G C108A A121C | ≤ -4.2
2 | G50A G84A A142C | -3.15
3 | G50A G84A U139A | ≤ -4.2
4 | G50A G84U A147U | -1.53
5 | G50A G86A | -3.01
6 | G50A G86A G128A C132U | ≤ -4.2
7 | G50A G86U G140U | ≤ -4.2
8 | G50A G94A U101A C125G U148C | ≤ -4.2
9 | G50A G100A | ≤ -4.2
10 | G50A G128U | -3.21
11 | G50A G133U | ≤ -4.2
12 | G50A G136U | -2.96
13 | G50A U53A A91U G124A C131G A137C | ≤ -4.2
14 | G50A U53A C85A U109G A115G C116G G126C | ≤ -4.2
15 | G50A U53A G86C U104G A150G | ≤ -4.2
16 | G50A U53A U56A C75U C116A U134G | ≤ -4.2
17 | G50A U53G U56A G81U A91C C105A A113U A142C A147G C149A | ≤ -4.2
18 | G50A U55A A91U U135C | ≤ -4.2
19 | G50A U55A U82C C96G G126C | ≤ -4.2
20 | G50A U55G G80C | ≤ -4.2
21 | G50A U56A C76A A91C A115C A137G A138G | ≤ -4.2

Row | Variant | polymerase ribozyme fitness (log ratio)
22 | G50A U56A U101A U111C | ≤ -4.2
23 | G50A U61A G81U G83C A91U U104G G143A | ≤ -4.2
24 | G50A U61C G92C | ≤ -4.2
25 | G50A U77A G88A | ≤ -4.2
26 | G50A U78C C87A C105A A121U U134G G141C A142U | ≤ -4.2
27 | G50A U78G | -4.06
28 | G50A U82C G86U G112C | ≤ -4.2
29 | G50A U109A A115G G143A | ≤ -4.2
30 | G50A U111G A113U A115G | ≤ -4.2
31 | G50C | -2.52
32 | G50C A52C A73G A91C C118G U135G | ≤ -4.2
33 | G50C A52C C54U A106C | ≤ -4.2
34 | G50C A52C C105A C125A A142C U146A | ≤ -4.2
35 | G50C A52C U55A G86A | -3.95
36 | G50C A52G U55A U56G C57U G86A C96A U101A | ≤ -4.2
37 | G50C A52U A66U G83A | ≤ -4.2
38 | G50C A52U G143A | ≤ -4.2
39 | G50C A64C U82G C87G A106U A122C | ≤ -4.2
40 | G50C A66G G68U C93U C103A G126A A137C | ≤ -4.2
41 | G50C A73C C93G A97G A115C A138G | ≤ -4.2
42 | G50C A73G G84A | -4.1

Row | Variant | polymerase ribozyme fitness (log ratio)
43 | G50C A73U G80A G81U C95A G100U U151C | ≤ -4.2
44 | G50C A89U G94U C96U A115G | ≤ -4.2
45 | G50C A91C C116U A120G C123A | ≤ -4.2
46 | G50C A91C C131A | ≤ -4.2
47 | G50C A91U A97U C132U | ≤ -4.2
48 | G50C A110C | ≤ -4.2
49 | G50C A110G A120U | ≤ -4.2
50 | G50C A115U | ≤ -4.2
51 | G50C A120U A121C | -2.61
52 | G50C A120U U151A | ≤ -4.2
53 | G50C A137C G141U | ≤ -4.2
54 | G50C C51G A52U C76U G84U C105U C114U G133A | ≤ -4.2
55 | G50C C51U C85A C118G C129U | ≤ -4.2
56 | G50C C51U C87U G152U | ≤ -4.2
57 | G50C C54A A91U | ≤ -4.2
58 | G50C C54G | ≤ -4.2
59 | G50C C54U | -2.6
60 | G50C C54U C87A U135C U144C | ≤ -4.2
61 | G50C C54U G68A G86C A119G U151C | ≤ -4.2
62 | G50C C57U C76A C85U | ≤ -4.2
63 | G50C C57U G70A G88A G143C | ≤ -4.2

Row | Variant | polymerase ribozyme fitness (log ratio)
64 | G50C C63U U82C A115U U146A | -1.83
65 | G50C C69A C79A U82G U90G A107G A120G C129G U139G C149G | ≤ -4.2
66 | G50C C75A C87G A150G | ≤ -4.2
67 | G50C C75G C79U U90G C93A | ≤ -4.2
68 | G50C C75U C93G A115G | ≤ -4.2
69 | G50C C76A A89U G94U G100U | ≤ -4.2
70 | G50C C76A C87A | ≤ -4.2
71 | G50C C76A G83U C103A C132G U145G | ≤ -4.2
72 | G50C C76G C79A G100U G124C | ≤ -4.2
73 | G50C C76U | -1.88
74 | G50C C76U G83U C93G G94U C95A A97U U135C | ≤ -4.2
75 | G50C C85A | ≤ -4.2
76 | G50C C85A C93A | ≤ -4.2
77 | G50C C85U U127A | ≤ -4.2
78 | G50C C87G C99A | ≤ -4.2
79 | G50C C87U A107U A113G A119C | ≤ -4.2
80 | G50C C87U A113C C116A G143U U145C | ≤ -4.2
81 | G50C C87U G100A | ≤ -4.2
82 | G50C C93U C118U A138U U145A | ≤ -4.2
83 | G50C C95U U146G | -3.64

From the RNAGym collection of RNA variant scans (doi:10.1073/pnas.2313332121)
